20 variants from the RNAGym collection of RNA variant scans (doi:10.7554/elife.90254) can be followed below.

To fix the notation:
B1: LINE1-full (parent)
chain: UACGUAGGUGGUUUUCCCCUGAUAGUGCUAAGGGGGCCUGGAAGUUUGGACUGGGCAGAGCUCAACACAGCGUGGCAAAGUGGCUGUGGCUAGACUGCCUCUCUGGAUUCCUCGUCACUCAGCAGGGCAUCUCUGAGAGAAAUGCC

The source gives no read counts; variants with many changes may rest on few reads.

Variants of B1 are the subject of this data set. Kind of data set: self-cleavage, relative activity (ratio to wild type); higher = more cleavage; in vitro, sequencing; the parent is a self-cleaving ribozyme.
Take UACGUAGGGGGUUUUCCCCUGAUAGUGCUAAGGGGGCCUGGAAGUUUGGACUGGGCUGAGCUCAACACAGCGUGGCAAAGUGGCUGUGGCUAGACUGCCUCUCUGGACUCCUCGUCACUCGGCAGGGCAUCUCUGAGAGAAAUGCC: the self-cleavage is 0.

For the variant UACGUAGGCGGUUUUCCCCUGAUAGUGCUAAGGGGGCCUGGAAGUUUGGACUGGGCAGAGCUCAACACAGCGUGGCAAAGUGGCUGUGGCUAGACUGCCACUCUGGAUUCCUCGUCACCCAGCAGGGCAUCUCUGAGAGAAAUGCC, the self-cleavage was 0.82.

Regarding UACGUAGGGGGUUUUCCCCUGAUAGUGCUAAGGGGGCCUGGAAGUUUGGGCUGAGCAGAGCUCAACACAGCGUGGCAAAGUGGCUGUGGCUAGACUGCCUCUCUGGAUUCCUCGUCACUCAGCAGGGCAUCUCUGUGAGAAAUUCC, the self-cleavage came to 0.17. Regarding UACGUAGGCGGUUUUCCCCUGAUAGUGCUAAGGGGGCCUGGAAGUUUGGACUGGGCAGAGCUCAACACAGCGUGGCAAAGUGGCUGUGGCUAGACUGCCUCUCUGGAUUCCUCGACACUCAGCAGGGCAUCUCUGAGAGAAACGCC, the self-cleavage came out at 1.44. In the case of UACGUAGGCGGUUUUCCCCUGAUAGUGCUAAGGGGGCCUGGAAGUUUGGACUGGGCAGAGCUCAACACAGCGUGGCAAAGUGGCUGUGGCUAGACCGCCUCCCUGGAUUCCUCGUCACUCAGCAGGGCAUCUCUGAGAGAAAUGCC it was 0.79. Take UACGUAGGCGGUUUUCCCCUGAUAGUGCUAAGGGGGCCUGGAAGUUUGGACUGGGCAGAGCUCAACACAGCGUGGCAAAGUGGCUGUGGCCAGACUGCCUCUCUGGAUUCCUCGUCGCUCAGCAGGGCAUCUCUGAGAGAAAUGCC: the self-cleavage was 1.53.

As to UACGUAGGGGGUUUUCCCCUGAUAGUGCUAAGGGGGCCUGGAAGUUUGGACUGGGCAGGGCACAACACAGCGUGGCAAAGUGGCGGUGGCUAGACUGCCUCUCUGGAUUCCUCGUCACUCAGCAGGGCAUCUCUGAGAGAAAUGCC, the self-cleavage was determined as 0.

As for UACGUAGGCGGUUUUCCCCUGAUAGUGCUAAGGGGGCCUGGAAGUUUGGACUGGGCAGAGCUCAACACAGCGUGGCAAAGUGGCUGUGGCUAGACUGCCUCUCUGGAUUCCUCGUCACUCAGCAGGGCAUCUCGGAGAGAGAUGCC, the self-cleavage was determined as 1.95. On to UACGUAGGCGGUUUUCCCCUGAUAGUGCUAAGGGGGCCUGGAAGUUUGGACUGGGCAGAGCUCAACACAGCGUGGCAAAGUGGCUGUGGCUAGACUGCCUCUCUGGAUUCCUCGCCACACAGCAGGGCAUCUCUGAGAGAAAUGCC, for which the self-cleavage stood at 1.48.

Regarding UACGUAGGCGGUUUUCCCCUGAUAGUGCUAAGGGGGCCUGGAAGUUUGGACUGGGCAGAGCUCAACACAGCGUGGCAAAGUGGCUGCGGCUAGGCUGCCUCUCUGGAUUCCUCGUCACUCAGCAGGGCAUCUCUGAGAGAAAUGCC, the self-cleavage turned out to be 0. With UACGUAGGGGGUUUUCCCCUGAUAGUGCUAAGGGGGCCUGGUAGUUUGGGCUGGGCAGAGCUCAUCACAGCGUGGCAAAGUGGCUGUGGCUAGACUGCCUCUCUGGAUUCCUCGUCACUCAGCAGGGCAUCUCUGAGAGGAAUGCC the figure was 0.28.

On to UACGUAGGCGGUUUUCCCCUGAUAGUGCUAAGGGGGCCUGGAAGUUUGGACUGGGCAGAGCUCAACACAGCGUGGCAAAGUGGCUGUGGCUAGACUGCCUCUCUGGACUCCUCGUCACUCAGCAGGGCACCUCUGAGAGAAAUGCC, for which the self-cleavage turned out to be 2.3. With UACGUAGGCGGUUUUCCCCUGAUAGUGCUAAGGGGGCCUGGAAGUUUGGACUGGGCAGAGCUCAACACAGCGUGGCAAAGUGGCUGUGGCUAGACUGCCCCUCUGGAUUCCUCGUCACUCAGCAGGGUAUCUCUGAGAGAAAUGCC, the self-cleavage was 1.54. As for UACGUAGGGGGUUUUCCCCUGGUAGUGCUAAGGGGGCCUGGAAGUUUUGACUGGGCAGAGCUCAACACAGCGUGGCAAAGUGGCUGUGGCUAGACUGCCUCUCUGGAUUCCUCGUCACUCAGCAGGGCAUCUCUGAGAGAAAUGCC, the self-cleavage amounted to 0.41. As to UACGUAGGCGGUUUUCCCCUGAUAGUGCUAAGGGGGCCUGGAAGUUUGGACUGGGCAGAGCUCAACACAGCGUGGCAAAGUGGCCGUGGCUAGACUGCCUCUCUGGAUUCCUCGUCACUCAGCAGGGCAUCUCCGAGAGAAAUGCC, the self-cleavage worked out at 0.44. With UACGUAGGGGGUUUUCCCCUGAUAGUGCUAAGGGGGCCUGGGAGUUUGGACUGGGCAGAGCUCAACACAGCGUGGCAAAGUGGCUGUGGCUAGACUGCCUCUCUGGAUUCCUCGUCUCUCAGCAGGGCAUCUCUGAGAGAAAUGCC, the self-cleavage turned out to be 1.05.

On to UACGUAGGCGGUUUUCCCCUGAUAGUGCUAAGGGGGCCUGGAAGUUUGGACUGGGCAGAGCUCAACACAGCGUGGCAAAGUGGCUGUGGCUAGACUGCCUCUCUGGAUUCCUCGUCACUCAGCAGGGCAUCUCCGAGAGAAACGCC, for which the self-cleavage came out at 0.66. With UACGUAGGCGGUUUUCCCCUGAUAGUGCUAAGGGGGCCUGGAAGUUUGGACUGGGCAGAGCUCAACACAGCGUGGCAAAGUGGCUGAGGCUAGACUGCCUCACUGGAUUCCUCGUCACUCAGCAGGGCAUCUCUGAGAGAAAUGCC, the self-cleavage turned out to be 0.15. Regarding UACGUAGGCGGUUUUCCCCUGAUAGUGCUAAGGGGGCCUGGAAGUUUGGACUGGGCAGAGCUCAACACAGCGUGGCAAAGUGGCUGUGGCUAGACUGCCUCUCUGGAUUCCACGUCACUCAGCAGGGCGUCUCUGAGAGAAAUGCC, the self-cleavage was 2.04.

Consider UACGUAGGCGGUUUUCCCCUGAUAGUGCUAAGGGGGCCUGGAAGUUUGGACUGGGCAGAGCUCAACACAGCGUGGCAAAGUGGCUGCGGCUAGACUGCCUCUCUGGAUUCCUCGUCACUCAGCAGGGUAUCUCUGAGAGAAAUGCC, for which the self-cleavage stood at 0.24.
